Paper PMC4336329 (PLoS ONE, 2015)
Out of some 310,000 compounds screened, about 14,000 (4.5%) showed an effect of 50% or more. The effect is printed as a negative number. The list shows a part of the results.

Each compound was assayed against human ether-à-go-go-related gene (hERG) potassium channel (human, UniProt Q12809) (assay: primary screen, population patch clamp on CHO cells stably expressing hERG).
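Note: peak tail current of the secondary pulse compared with the same well before compound.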

human ether-à-go-go-related gene (hERG) potassium channel, sequence (Q12809 whole entry, looked up): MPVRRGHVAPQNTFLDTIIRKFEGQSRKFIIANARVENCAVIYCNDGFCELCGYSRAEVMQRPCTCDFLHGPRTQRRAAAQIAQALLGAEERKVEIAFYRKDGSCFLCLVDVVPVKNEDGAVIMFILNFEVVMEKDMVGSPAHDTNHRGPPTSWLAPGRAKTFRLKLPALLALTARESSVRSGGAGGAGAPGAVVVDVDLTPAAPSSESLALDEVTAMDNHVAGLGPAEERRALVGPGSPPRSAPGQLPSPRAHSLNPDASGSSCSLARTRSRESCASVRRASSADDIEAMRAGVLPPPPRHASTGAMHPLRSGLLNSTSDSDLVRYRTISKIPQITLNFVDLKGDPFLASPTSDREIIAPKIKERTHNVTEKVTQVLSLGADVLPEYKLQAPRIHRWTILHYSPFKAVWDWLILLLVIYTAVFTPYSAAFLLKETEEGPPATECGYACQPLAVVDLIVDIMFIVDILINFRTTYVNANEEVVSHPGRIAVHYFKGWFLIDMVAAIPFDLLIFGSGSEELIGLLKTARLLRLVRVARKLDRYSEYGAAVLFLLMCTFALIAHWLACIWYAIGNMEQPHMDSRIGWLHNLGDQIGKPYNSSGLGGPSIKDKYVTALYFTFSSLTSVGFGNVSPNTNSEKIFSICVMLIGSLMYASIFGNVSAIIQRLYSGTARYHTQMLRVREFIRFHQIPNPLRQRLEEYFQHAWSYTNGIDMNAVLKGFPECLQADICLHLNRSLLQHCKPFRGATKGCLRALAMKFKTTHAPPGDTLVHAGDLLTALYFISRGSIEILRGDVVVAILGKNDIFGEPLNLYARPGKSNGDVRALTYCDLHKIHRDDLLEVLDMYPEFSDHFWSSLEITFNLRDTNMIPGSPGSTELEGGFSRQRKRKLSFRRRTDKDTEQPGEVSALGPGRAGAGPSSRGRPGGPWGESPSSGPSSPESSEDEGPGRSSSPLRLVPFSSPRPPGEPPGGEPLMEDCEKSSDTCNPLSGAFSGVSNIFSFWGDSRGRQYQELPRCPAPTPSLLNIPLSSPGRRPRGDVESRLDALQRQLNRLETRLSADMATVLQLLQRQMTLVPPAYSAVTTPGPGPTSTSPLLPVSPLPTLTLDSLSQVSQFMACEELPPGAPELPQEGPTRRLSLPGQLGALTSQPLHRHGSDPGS

Structure (SMILES) | hERG current change (%, negative = inhibition) at 10uM [%]
O=C(NCCN1CCOCC1)c1ccc(CS(=O)(=O)c2ccc(Cl)cc2)o1 | -4.24
COc1ccc(CCN2C(=O)N[C@@H](C(C)C)C2=O)cc1 | 10.5
CCN(CC(=O)NCc1ccc(F)cc1)Cc1nc2ccccc2c(=O)[nH]1 | -56.5
O=C(N/N=C/c1ccco1)c1cccc([N+](=O)[O-])c1 | 3.61
CC(C)C(NC(=O)CN(c1ccc2c(c1)OCCO2)S(=O)(=O)c1ccccc1)C(C)C | -19.9
CCOc1ccccc1NC(C)C(=O)NC(=O)NC1CCCCC1 (stereo not drawn) | -14
CC(C)OCC(O)CCc1n[nH]c(=S)n1-c1ccccc1 (stereo not drawn) | 19.6
CCc1nc2sc3c(=O)[nH]cnc3c2c2c1CSC(C)(C)C2 | -6.93
Cc1cc(C)nc(NC(=O)c2c(-c3ccccc3Cl)noc2C)n1 | 7.94
Clc1ccc(-c2nnc(-c3ccccc3)c(N3CCSCC3)n2)cc1 | 0.226
COc1cccc(NC(=O)CN2C(=O)C(c3ccc(C)cc3)=NC23CCCCCC3)c1 | 4.97
Cc1c(C(=O)N2CCCCC2)c(S(=O)(=O)NCCc2ccc(S(N)(=O)=O)cc2)c(C)n1C | -4.09
Cc1cc(/C=N/Nc2nc(N)ncc2[N+](=O)[O-])c(C)n1-c1cccc(C(F)(F)F)c1 | 27.2
COc1ccccc1NC(=O)CN(c1ccc(C23CC4CC(CC(C4)C2)C3)cc1)S(C)(=O)=O | 6.65
CCS(=O)(=O)N1CCN(c2cc3c(cc2[N+](=O)[O-])n(C)c(=O)n3C)CC1 | 7.13
CCN1CCN(C(=O)c2ccc(CS(=O)Cc3ccc(C)cc3)o2)CC1 (stereo not drawn) | 11
COc1ccc(-c2nnc(SCC(=O)/C(C#N)=C(\C)N)o2)cc1 | -5.99
COc1ccc(-c2ccc(CNCCCN3CCOCC3)o2)cc1Cl.Cl | 6.83
COc1ccc(CC2(CO)CCN(Cc3cnn(-c4ccccc4)c3)CC2)cc1 | -77.6
CC1(C)Cc2cccc(OCC(=O)Nc3cccnc3Cl)c2O1 | -6.78
CCc1cc2c3c(c1)C1(C(=O)N3C(C)(C)CC2C)C(C#N)=C(N)N2C(=C1C#N)Nc1ccccc12 (stereo not drawn) | -1.49
COc1ccccc1NC(=O)c1ccc(NS(=O)(=O)c2c(C)noc2C)cc1 | -0.229

Structure (SMILES) | hERG current change (%, negative = inhibition) at 10uM [%]
Cc1ccc(/C=N/Nc2ccc3c(C(F)(F)F)cc(C(F)(F)F)nc3n2)cc1 | 10.8
Cc1ccc(-n2c(=O)c(C#N)cc3c(=O)n4ccccc4nc32)cc1 | 2.97
COc1ccccc1-c1cc2nc(C)c(CCC(=O)NCc3ccco3)c(C)n2n1 | -43.1
Cc1cc(=O)[nH]c(Nc2c(C)n(C)n(-c3ccccc3)c2=O)n1 | 2.57
C=CCN(c1ccc(C(=O)Nc2cccc([N+](=O)[O-])c2)cc1)S(C)(=O)=O | 9.42
Cc1nn(CC(=O)NCc2ccccc2)c(=O)c2ccccc12 | -13.2
COc1ccc(-c2nc3c(c(SCC(=O)N4CCCC4)n2)COC(C)(C)C3)cc1 | -16.9
CN(C(=O)CC1C(=O)NCCN1Cc1cccc(F)c1F)C1CC(C)(C)NC(C)(C)C1 (stereo not drawn) | 26.1
O=C(Nc1ccccc1)Nc1ccc(Cl)nc1Cl | 11.6
O=C(CSc1nc(C(F)(F)F)cc(=O)[nH]1)N1CCCC1 | 19
CC(C)OCCCNC(=O)c1cc2c(=O)n(C)c3ccccc3c2n1C | -1.46
NS(=O)(=O)c1ccc2nc(NC(=O)c3ccc4c(c3)OCCO4)sc2c1 | 22
COC(=O)C1=C(C)NC(=O)/C1=C/c1ccc(CNS(=O)(=O)c2ccc(C)cc2)o1 | 15
CN(C)CCNc1nc2c(c(=O)[nH]c(=O)n2C)n1CCCc1ccccc1 | -29.1
Cc1ccc2c(c1)[nH]c1c(=O)n(Cc3ccco3)cnc12 | -0.956
COc1ccc(S(=O)(=O)Nc2ccncc2)c(C)c1C | 14.9
CC(C)(C)CN1C(N)=NC[C@@H]1c1ccccc1 | 19.1
CCCCCCN=C(CC)c1c(O)n(CCCC)c(=O)[nH]c1=O | -55.4
CCN(CC)CCCNC(=O)c1c(O)c2c([nH]c1=O)CCCC2 | -16.9
Cc1cc(C(=O)C[N+]23CCN(CC2)CC3)c(C)n1-c1ccc(Br)cc1.[Cl-] | 12.1
COc1cc(CCC(=O)OCC(=O)Nc2c(Cl)cccc2Cl)cc(OC)c1OC | 17.2
COc1ccccc1NC(=O)Nc1ccc2c(c1)nnn2C | -0.0409

Structure (SMILES) | hERG current change (%, negative = inhibition) at 10uM [%]
O=C(NP(=O)(N1CCOCC1)N1CCOCC1)C1=C(N2CCOCC2)/C(=C\c2ccccc2)CC1 | 18.1
COc1ccc(C)cc1NC(=O)C(=O)c1cn(CC(=O)N2CCCC2)c2ccccc12 | 11.4
O=C(CCn1c(=O)[nH]c2ccsc2c1=O)NCc1ccc(F)cc1 | 1.7
O=C(c1ccc(Cl)c(S(=O)(=O)N2CCOCC2)c1)N1CCOCC1 | 12
S=c1[nH]nc(C2CCCCC2)n1/N=C/c1cccc(Cl)c1Cl | 10.3
CSCC(=O)N1CCCC(N2CCN(c3ccc(F)cc3)CC2)C1 (stereo not drawn) | -22.9
O=C(NCCCn1ccnc1)c1cc(-c2cccs2)on1 | -24.1
COc1ccc(CCNc2oc(COc3ccc(F)cc3)nc2C#N)cc1 | 2.97
Cc1ccc(NC(=O)Cc2ccc(F)cc2)cc1 | 7.89
CC(C)C(OC(=O)c1cccs1)C(=O)NCc1ccco1 (stereo not drawn) | 6.28
CCCS(=O)(=O)NCc1ccc2c(c1)cc(C)n2C | 2.27
COC(=O)c1ccccc1NC(=O)NCc1ccccc1 | -3.24
O=[N+]([O-])c1ccccc1N/N=C1\CC2CC=CC12 (stereo not drawn) | 46.5
Cc1csc(NC(=O)CSc2nnc(C)n2Cc2ccco2)n1 | -1.85
CN(C)S(=O)(=O)c1ccc(C(=O)NC(=O)CSc2ccccc2)cc1 | 4.06
CCn1c(C(=O)N2CCC(C(=O)NCc3cccs3)CC2)cc2sccc21 | -63
CN(C(=O)c1cccnc1)c1nnc(-c2ccccn2)s1 | 1.36
COc1ccc(-c2cc(OC)c3c(C)oc(C)c3c(=O)c2)cc1OC | 2.75
O=C(NCCC(=O)N1CCN(c2ccccn2)CC1)c1ccc(Br)cc1 | -42.5
O=C(COC(=O)CCC(=O)c1ccc(Cl)cc1)NCCc1ccccc1 | 18.3
CCCNC(=O)NNC(=O)c1ccc(F)cc1 | -2.15
O=C(CN1CCN(c2ccc(F)cc2)CC1)Nc1ccc2c(c1)OCCO2 | 4

Structure (SMILES) | hERG current change (%, negative = inhibition) at 10uM [%]
COC(=O)C1=C(N)OC2=C(C(=O)CCC2)C1c1cccs1 (stereo not drawn) | 5.85
CCN(CC)S(=O)(=O)c1ccc(NS(=O)(=O)c2ccc(F)cc2)cc1 | 5.42
NC(=O)C1CCN(c2cc(N3CCOCC3)ccc2[N+](=O)[O-])CC1 | 19.5
Cc1cccc(-n2c(O)c(C=Nc3cc(O)ccc3C)c3ccccc3c2=O)n1 | 21.3
COCCCNC(=O)C(Cc1ccccc1)NS(=O)(=O)c1ccc2c(c1)c(=O)n(C)c(=O)n2C (stereo not drawn) | -0.155
C[C@H](NC(N)=O)C(=O)OCC(=O)NCc1cccs1 | 1.64
O=C1C=C(c2ccc(F)cc2OCc2ccccc2)C[C@@H](c2ccc3c(c2)OCO3)C1 | 23.8
Cc1cc(NC(=O)CCN2C(=O)C3C4CCC(C4)C3C2=O)cc(C)c1Br (stereo not drawn) | -44.9
CCN1C(=O)[C@H]2[C@@H](c3ccc(-c4ccc(F)cc4)c(OC)c3)N[C@@](CC(C)C)(C(=O)OC)[C@H]2C1=O.O=C(O)C(F)(F)F | 5.93
COc1ccc(NC(=O)c2ccc(-c3ccc(C(C)=O)cc3)o2)cn1 | 5.98
Cc1ccc(C(=O)O)cc1NS(=O)(=O)c1ccc2ccccc2c1 | 12.7
O=C(/C=C/c1ccc(Br)cc1)Nc1ccc(S(=O)(=O)Nc2ncccn2)cc1 | 32.9
Cc1cc(OCC(=O)N2CCN(c3ccccn3)CC2)c(C)cc1Br | 6.09
Cc1ccc(-n2cc(CNCCn3nc(C)cc3C)c(-c3ccc(F)cc3)n2)cc1 | -50.8
O=C1NS(=O)c2cc([N+](=O)[O-])cc([N+](=O)[O-])c21 (stereo not drawn) | 20.8
O=C(CCNc1cccc(C(F)(F)F)c1)c1ccco1 | -0.255
C=CCc1ccccc1OCC(=O)NNC(=S)NCc1ccccc1 | -0.308
Cc1cc(C)c2nc(SCC(=O)NCC3CCCO3)c(C#N)cc2c1 (stereo not drawn) | 7.18
COC(=O)CSC1=NS(=O)(=O)c2ccccc21 | 6.01
Cn1c(=O)c2c(nc(NCc3cccnc3)n2Cc2ccccc2Cl)n(C)c1=O | -4.86
Cc1ccc(OCCOc2cccc(C=C3C(=O)NC(=O)NC3=O)c2)c(C)c1 | 7.36
